Hit rate of the full screen: of about 110,000 compounds, about 230 (0.21%) showed an effect of 50% or more. This is one part of the list.
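Further: 30 min substrate incubation versus DMSO and 10 µM JCP410 controls.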

The target of the assay is DPAP1 (Plasmodium falciparum, UniProt Q8IIJ9). In words: primary screen, percent inhibition; read by cleavage of a fluorogenic dipeptide substrate; higher = more effect of the substance. Further details: species or system P. falciparum D10 trophozoite lysates; single well.
Chain of DPAP1 (Q8IIJ9 whole entry, looked up): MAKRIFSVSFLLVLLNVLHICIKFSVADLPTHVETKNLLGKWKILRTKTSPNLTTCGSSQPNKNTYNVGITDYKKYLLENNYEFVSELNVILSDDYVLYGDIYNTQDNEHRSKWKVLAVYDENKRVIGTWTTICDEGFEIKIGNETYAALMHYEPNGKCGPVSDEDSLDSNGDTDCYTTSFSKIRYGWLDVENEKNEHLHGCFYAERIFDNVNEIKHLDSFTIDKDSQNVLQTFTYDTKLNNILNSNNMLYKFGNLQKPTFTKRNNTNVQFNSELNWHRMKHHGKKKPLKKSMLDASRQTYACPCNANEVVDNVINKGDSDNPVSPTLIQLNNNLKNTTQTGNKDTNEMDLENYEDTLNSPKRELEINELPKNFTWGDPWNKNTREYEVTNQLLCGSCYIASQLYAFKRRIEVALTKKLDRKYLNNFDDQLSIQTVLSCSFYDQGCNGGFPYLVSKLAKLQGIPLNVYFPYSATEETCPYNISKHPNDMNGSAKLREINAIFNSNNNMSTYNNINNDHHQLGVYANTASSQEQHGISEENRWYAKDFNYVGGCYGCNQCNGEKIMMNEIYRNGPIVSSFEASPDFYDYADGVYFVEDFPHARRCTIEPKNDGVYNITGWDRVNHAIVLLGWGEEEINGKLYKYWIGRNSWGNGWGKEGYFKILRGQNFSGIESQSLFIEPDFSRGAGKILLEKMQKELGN
For the compound `COc1ccc(CNc2ccc(C)c(C)c2)cc1OC`, the “% Inhibition @ 10 uM” value is reported as 2.78%.
As to `Cc1ccsc1/C=C1\CCC(C2CCCC2)C1=O` (stereo not drawn), the “% Inhibition @ 10 uM” value turned out to be 13.9%.
The figure for `COCCCNC(=O)c1nnc(Cc2ccc(C)cc2)o1` is -1.68%.
The figure for `COCCCNC(=O)C(=O)c1cn(C)c2ccccc12` is -0.834%; for `CC1=C(C(=O)Nc2ccc(C)cn2)C(c2cn(C)nc2C)C2=C(O)CC(c3ccccc3)CC2=N1` (stereo not drawn) it is 2.51%; for `CC(NS(=O)(=O)c1ccc(OCC(=O)Nc2ccc(F)cc2)cc1)c1ccccc1` (stereo not drawn) it is 5.39%.
The figure for `O=C(CSc1ccccn1)Nc1ccc(Br)cc1Cl` is -2.16%; for `Cc1cccc(N(CC(=O)Nc2cc(C(F)(F)F)ccc2Cl)S(C)(=O)=O)c1` it is 8.13%; for `CC1(C)CC(=O)C(C(C2=C(O)CC(C)(C)CC2=O)c2cc(Cl)cc(Cl)c2O)C(=O)C1` (stereo not drawn) it is 1.63%.
`CCCN(CCC)S(=O)(=O)c1ccc(C(=O)NCc2ccc3c(c2)OCO3)cc1`: the “% Inhibition @ 10 uM” value is on record as -2.39%.
The figure for `O=c1c2ccccc2nc2nc(-c3ccccc3)cc(-c3ccc([N+](=O)[O-])cc3)n12` is 2.55%.
On to `CCOC(=O)C1=C(CN2CCN(Cc3ccc4c(c3)OCO4)CC2)NC(=O)NC1c1cccs1` (stereo not drawn), for which the “% Inhibition @ 10 uM” value came to 5.71%.
For `Cc1cccn2c(=O)c(/C=C3\SC(=S)NC3=O)c(NCCCN3CCOCC3)nc12` the value was 5.1%.
The figure for `Cc1c(C(=O)N2CCCC2)oc2c1-c1nn(CC(=O)NC(C)c3ccc4c(c3)OCCO4)cc1CC2` (stereo not drawn) is 4.4%.
For `O=C(CSc1ccc(F)cc1)Nc1ccc(F)c(F)c1` the value was 2.51%; for `O=C(NCc1ccccc1)C1CC=CCC1C(=O)OCC1CCCO1` (stereo not drawn), 1.63%.
As to `O=C1c2cccc3cccc(c23)C(=O)N1CCN1CCN(C(=O)C23CC4CC(CC(C4)C2)C3)CC1`, the “% Inhibition @ 10 uM” value is listed as -3.85%.
On to `CCCOc1ccc(/C=C2\N=C(c3ccccc3)OC2=O)cc1`, for which the “% Inhibition @ 10 uM” value is reported as 22.7%.
For `Cc1cccn2c(=O)c3cc(C#N)c(=O)n(CCCN4CCOCC4)c3nc12` the value was -2.28%; for `CC(=O)Nc1ccc(OCc2ccccc2)cc1`, -7.42%; for `COc1cc(C(=O)NCCC(=O)N2CCCCC2)cc(OC)c1OC`, -7.57%.
As to `O=C(C(Cc1ccccc1)N1Cc2ccccc2C1=O)N1CC=C(c2ccccc2)CC1` (stereo not drawn), the “% Inhibition @ 10 uM” value came to 0.0322%.
For `COc1cc(OC)c(C(=O)N(Cc2nc(-c3ccc(Cl)cc3)no2)C(C)C)cc1OC` the value was -8.9%.
The figure for `CN1CCCN(C2CCN(CCc3ccccc3)CC2)CC1` is -1.81%; for `O=C(c1ccco1)N1CCN(C(=O)c2c[nH]nc2C2CCNCC2)CC1` it is 0.713%; for `COc1ccc(S(=O)(=O)NCCO)cc1C(=O)O` it is 13.3%.
`CCCOc1ccc(C(=O)Nc2ccc(Br)cn2)cc1`: the “% Inhibition @ 10 uM” value stood at 7.62%.
The figure for `COc1ccc2c(C)cc(N3CCCCCC3)nc2c1` is 0.634%; for `Cc1ccc(Nc2cccc3nonc23)cc1` it is -0.988%.
The figure for `NC(=O)c1c(NC(=O)c2cc(Br)ccc2Cl)sc2c1CCCC2` is 1.64%; for `CC(c1ccccc1)N1CSC2=C(C#N)C(c3cccs3)CC(=O)N2C1` (stereo not drawn) it is 68%.
For `CC(C)C[C@H](NC(=O)c1cccc(OCCCc2cccnc2)c1)C(=O)NCC#N` the value was -9.15%; for `CNS(=O)(=O)c1cn(CC(=O)NC2CCCc3ccccc32)cc1S(=O)(=O)NC` (stereo not drawn), -9.5%.
As to `COc1ccc(-c2cc(-c3ccccc3)nc(OC(C)C)n2)cc1`, the “% Inhibition @ 10 uM” value was -6.08%.
Turning to `CCCNC(=O)Cc1ccc(-n2c(-c3ccccc3)nc3cccnc32)cc1`, the “% Inhibition @ 10 uM” value is on record as -2.56%.
The figure for `Cc1ccc(OCCn2c(C)nc3ccccc32)cc1` is 6.2%; for `CC(=O)Nc1ccc(S(=O)(=O)NCc2ccc(C)cc2)cc1` it is -3.25%; for `Oc1ccccc1-c1cc(-c2ccc(Cl)cc2)[nH]n1` it is 1.83%.
For `CN1CCN(C(=O)c2cn(C3CCCCC3)c(=O)c3c2c2ccccc2n3C)CC1` the value was 5.06%.
The figure for `O=C(CN1C(=O)CSc2ncccc21)N1CCC2(CC1)OCCO2` is -0.637%; for `CN(C)c1ccc(C2Nc3ccccc3N=C3CC(C)(C)CC(O)=C32)cc1` (stereo not drawn) it is 4.39%.
Take `COCc1cc(O)n2nc(C)c(-c3ccc(OC)cc3)c2n1`: the “% Inhibition @ 10 uM” value is on record as 1.72%.
The figure for `COc1ccc(S(=O)Cc2ccc(C(=O)N3CCN(C(=O)c4ccco4)CC3)o2)cc1` (stereo not drawn) is 2.03%; for `CCOC(=O)C1=C(CN2CCCC(c3ccccc3)C2)NC(=O)NC1c1cccc(OC)c1OC` (stereo not drawn) it is 3.75%.
The figure for `COc1ccc(OC)c(CN2CCC(Cc3ccccc3)CC2)c1` is -0.192%.
For `Cc1cc(C)c2c(n1)SCC(=O)N2CC(=O)NCc1cccnc1` the value was -2.37%; for `CC(=O)N1c2ccccc2N=C2CC(C)(C)CC(O)=C2C1c1cccs1` (stereo not drawn), 5.24%; for `CC1=C(C#N)C(c2ccc(Cl)cc2)C2=C(O)CC(c3ccccc3)CC2=N1` (stereo not drawn), -3.9%.
Turning to `O=C(Nc1ccc(Br)cn1)C1=Cc2sc3c(c2CS1)CCCC3`, the “% Inhibition @ 10 uM” value is 4.79%.
For `COc1ccccc1-c1c(C)nn2c(N3CC(C)CC(C)C3)cc(C)nc12` (stereo not drawn) the value was -1.46%; for `O=C(CCCOc1ccc(Cl)cc1Cl)N1CCN(c2ncccn2)CC1`, -0.95%.
The figure for `Cc1cccc(CN2CC(C)OC(C)C2)c1` (stereo not drawn) is -4.3%; for `O=C(O)C1CC=CCC1C(=O)Nc1ccccc1` (stereo not drawn) it is -1.78%.
For `COc1ccc(CN(C(=O)c2cc(=O)c3cc(Cl)ccc3o2)C2CCS(=O)(=O)C2)cc1` (stereo not drawn) the value was 6.38%; for `CCCOc1ccc(C(=O)N2CCCC2)cc1OC`, -2.63%; for `CC1=CC(C)(C)N(CC(=O)c2ccc([N+](=O)[O-])cc2)c2cc(C)ccc21`, -0.771%.
With `O=C(Cn1nc(Cc2ccncc2)c2ccccc2c1=O)Nc1ccc(Cl)cn1`, the “% Inhibition @ 10 uM” value was -3.14%.
For `O=C(O)c1[nH]c2ccccc2c1-n1cccc1` the value was -1.75%; for `COC(=O)c1ccc(-c2ccco2)n1CC(=O)NCCCc1ccccc1`, 0.943%; for `Cc1ccc(/C=C/C2=NC(=C\c3ccc(C)o3)/C(=O)O2)cc1`, 5.32%.
The figure for `CCOC(=O)C1CCN(C/C(C)=C/c2ccccc2)CC1` is -2.34%; for `CCOC(=O)c1cc(-c2ccccc2)sc1NC(=O)c1cccnc1` it is 2.26%; for `CCOc1ccccc1C1C(C#N)=C(N)Oc2cc(N)ccc21` (stereo not drawn) it is 2.54%.

Values taken from paper PMC6919601, “Identification of Plasmodium dipeptidyl aminopeptidase allosteric inhibitors by high throughput screening” (PLoS ONE, 2019).
